Assay results published in US5391540A, “Substituted pyridine compounds” (Rohm and Haas Company, priority 1993, dated 1995).
At least one read-out could not be matched to a standard name with certainty. Some compounds share one range, which may span the group rather than tell each member.

Columns and labels:
Assay in all cases: Post-emergence herbicidal activity (Table C)
Assay type in all cases: in vivo
Canada thistle = conditions: Cath, 11.2 kg/ha, 10-14 days
Cocklebur = conditions: Cobu, 11.2 kg/ha, 10-14 days
Downy Brome = conditions: Dobr, 11.2 kg/ha, 10-14 days
Morningglory = conditions: Mogl, 11.2 kg/ha, 10-14 days
Pennsylvania Smartweed = conditions: Pesw, 11.2 kg/ha, 10-14 days
Quackgrass = conditions: Rhqg, 11.2 kg/ha, 10-14 days
Rhizome Johnsongrass = conditions: Rhjg, 11.2 kg/ha, 10-14 days
Velvetleaf = conditions: Vele, 11.2 kg/ha, 10-14 days
Yellow Nutsedge = conditions: Yens, 11.2 kg/ha, 10-14 days
Barnyardgrass = conditions: Bygr, 11.2 kg/ha, 10-14 days
Common Lambsquarters = conditions: Colq, 11.2 kg/ha, 10-14 days

| SMILES | post-emergent herbicidal activity index (Canada thistle) | post-emergent herbicidal activity index (Cocklebur) | post-emergent herbicidal activity index (Downy Brome) | post-emergent herbicidal activity index (Morningglory) | post-emergent herbicidal activity index (Pennsylvania Smartweed) | post-emergent herbicidal activity index (Quackgrass) | post-emergent herbicidal activity index (Rhizome Johnsongrass) | post-emergent herbicidal activity index (Velvetleaf) | post-emergent herbicidal activity index (Yellow Nutsedge) | post-emergent herbicidal activity index (Barnyardgrass) | post-emergent herbicidal activity index (Common Lambsquarters) |
| --- | --- | --- | --- | --- | --- | --- | --- | --- | --- | --- | --- |
| COC(=O)c1c(C(F)(F)F)nc(OC)c(C2=NCCO2)c1CC(C)C [Compound 27, 3-pyridinecarboxylic acid, 5-(4,5-dihydro-2-oxazolyl)-6-methoxy-4-(2-methylpropyl)-2-(trifluoromethyl)-, methyl ester] | 0 (0-24% inhibition) | 0 (0-24% inhibition) | 0 (0-24% inhibition) | 1 (25-49% inhibition) | 0 (0-24% inhibition) | 0 (0-24% inhibition) | 0 (0-24% inhibition) | 0 (0-24% inhibition) | 0 (0-24% inhibition) | 0 (0-24% inhibition) | 0 (0-24% inhibition) |
| COC(=O)c1c(OC)nc(C(F)(F)F)c(C(=O)N2CCSC2)c1CC(C)C [Compound 71, 3-pyridinecarboxylic acid, 2-methoxy-4-(2-methylpropyl)-5-(3-thiazolidinylcarbonyl)-6-(trifluoromethyl)-, methyl ester] | 0 (0-24% inhibition) | 0 (0-24% inhibition) | 0 (0-24% inhibition) | 0 (0-24% inhibition) | 0 (0-24% inhibition) | 0 (0-24% inhibition) | 0 (0-24% inhibition) | 0 (0-24% inhibition) | 0 (0-24% inhibition) | 0 (0-24% inhibition) | 0 (0-24% inhibition) |
| CCSC(=O)c1c(C(F)(F)F)nc(OC)c(C(=O)OC)c1CC(C)C [Compound 53, 3-pyridinecarboxylic acid, 5-[(ethylthio)carbonyl]-2-methoxy-4-(2-methylpropyl)-6-(trifluoromethyl)-, methyl ester] | 0 (0-24% inhibition) | 0 (0-24% inhibition) | 0 (0-24% inhibition) | 0 (0-24% inhibition) | 0 (0-24% inhibition) | 0 (0-24% inhibition) | 0 (0-24% inhibition) | 0 (0-24% inhibition) | 0 (0-24% inhibition) | 0 (0-24% inhibition) | 0 (0-24% inhibition) |
| CN=C(SC)c1c(OC)nc(C(F)(F)F)c(C(=O)OC)c1CC(C)C [Compound 55, 3-pyridinecarboxylic acid, 6-methoxy-5-[(methylimino)(methylthio)methyl]-4-(2-methylpropyl)-2-(trifluoromethyl)-, methyl ester] | 0 (0-24% inhibition) | 0 (0-24% inhibition) | 0 (0-24% inhibition) | 0 (0-24% inhibition) | 0 (0-24% inhibition) | 0 (0-24% inhibition) | 0 (0-24% inhibition) | 0 (0-24% inhibition) | 0 (0-24% inhibition) | 0 (0-24% inhibition) | 0 (0-24% inhibition) |
| COc1nc(C(F)(F)F)c(C(=O)SC)c(C2CC2)c1C(=O)SC [Compound 12, 3,5-pyridinedicarbothioic acid, 4-cyclopropy1-2-methoxy-6-(trifluoromethyl)-, S,S-dimethyl ester] | 0 (0-24% inhibition) | 0 (0-24% inhibition) | 0 (0-24% inhibition) | 0 (0-24% inhibition) | 0 (0-24% inhibition) | 0 (0-24% inhibition) | 0 (0-24% inhibition) | 0 (0-24% inhibition) | 0 (0-24% inhibition) | 1 (25-49% inhibition) | 0 (0-24% inhibition) |
| CCOc1nc(C(F)(F)F)c(C(=O)OC)c(CC(C)C)c1C(=O)OC [Compound 6, 3,5-pyridinedicarboxylic acid, 2-ethoxy-4-(2-methylpropyl)-6-(trifluoromethyl)-, dimethyl ester] | 0 (0-24% inhibition) | 0 (0-24% inhibition) | 0 (0-24% inhibition) | 0 (0-24% inhibition) | 0 (0-24% inhibition) | 0 (0-24% inhibition) | 0 (0-24% inhibition) | 0 (0-24% inhibition) | 0 (0-24% inhibition) | 0 (0-24% inhibition) | 0 (0-24% inhibition) |
| COc1nc(C(F)(F)F)c(C(=O)SC)c(C2CCC2)c1C(=O)SC [Compound 65, 3,5 pyridinedicarbothioic acid, 4-cyclobuty1-2-methoxy-6-(trifluoromethyl)-, S,S-dimethyl ester] | 0 (0-24% inhibition) | 0 (0-24% inhibition) | 0 (0-24% inhibition) | 0 (0-24% inhibition) | 0 (0-24% inhibition) | 0 (0-24% inhibition) | 0 (0-24% inhibition) | 0 (0-24% inhibition) | 0 (0-24% inhibition) | 0 (0-24% inhibition) | 0 (0-24% inhibition) |
| COC(=O)c1c(OC)nc(C(F)(F)F)c(C(=O)SC)c1CC(C)C [Compound 34, 3-pyridinecarboxylic acid, 2-methoxy-4-(2-methylpropyl)-5-[(methylthio)carbonyl]-6-(trifluoromethyl)-, methyl ester] | 0 (0-24% inhibition) | 0 (0-24% inhibition) | 0 (0-24% inhibition) | 0 (0-24% inhibition) | 0 (0-24% inhibition) | 0 (0-24% inhibition) | 0 (0-24% inhibition) | 0 (0-24% inhibition) | 0 (0-24% inhibition) | 1 (25-49% inhibition) | 0 (0-24% inhibition) |
